Measured values: patent US20250228917A1 (SALUBRIS BIOTHERAPEUTICS, published 2025)

Key:
mouse HER3 antigen = molecular target: T1, mouse HER3 antigen (mouse, UniProt Q61526 20-641, limits assumed); assay: BIAcore SPR, 1:1 binding model (Group 3)
T1 construct: also called HER3 (mouse)

human HER3 antigen = molecular target: T2, human HER3 antigen (human, UniProt P21860 in part, limits assumed); assay: BIAcore SPR, 1:1 binding model (Group 1)
T2 construct: also called HER3 (human)

rat HER3 antigen = molecular target: T3, rat HER3 antigen (rat, UniProt Q62799 20-643, limits assumed); assay: BIAcore SPR, 1:1 binding model (Group 4)
T3 construct: also called HER3 (rat)

monkey HER3 antigen = molecular target: T4, monkey HER3 antigen (monkey); assay: BIAcore SPR, 1:1 binding model (Group 2)
T4 construct: also called HER3 (monkey)

mouse HER3 antigen, sequence (Q61526 20-641 limits assumed): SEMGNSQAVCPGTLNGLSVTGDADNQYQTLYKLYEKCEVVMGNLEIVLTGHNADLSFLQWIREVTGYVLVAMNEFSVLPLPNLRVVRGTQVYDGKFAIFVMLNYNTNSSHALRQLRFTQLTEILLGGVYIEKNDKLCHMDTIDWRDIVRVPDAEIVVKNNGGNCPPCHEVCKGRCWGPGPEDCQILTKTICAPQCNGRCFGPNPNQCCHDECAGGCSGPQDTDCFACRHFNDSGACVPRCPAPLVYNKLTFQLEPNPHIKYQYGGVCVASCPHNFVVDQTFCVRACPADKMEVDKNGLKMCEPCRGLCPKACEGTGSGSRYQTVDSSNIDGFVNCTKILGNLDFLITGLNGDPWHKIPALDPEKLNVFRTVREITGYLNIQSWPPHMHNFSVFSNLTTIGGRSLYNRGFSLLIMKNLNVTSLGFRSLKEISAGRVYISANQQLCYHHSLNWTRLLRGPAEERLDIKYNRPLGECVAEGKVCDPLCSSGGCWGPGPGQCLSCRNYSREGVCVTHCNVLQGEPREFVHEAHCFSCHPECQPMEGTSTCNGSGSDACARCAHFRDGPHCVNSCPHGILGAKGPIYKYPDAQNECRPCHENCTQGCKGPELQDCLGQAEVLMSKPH
rat HER3 antigen, sequence (Q62799 20-643 limits assumed): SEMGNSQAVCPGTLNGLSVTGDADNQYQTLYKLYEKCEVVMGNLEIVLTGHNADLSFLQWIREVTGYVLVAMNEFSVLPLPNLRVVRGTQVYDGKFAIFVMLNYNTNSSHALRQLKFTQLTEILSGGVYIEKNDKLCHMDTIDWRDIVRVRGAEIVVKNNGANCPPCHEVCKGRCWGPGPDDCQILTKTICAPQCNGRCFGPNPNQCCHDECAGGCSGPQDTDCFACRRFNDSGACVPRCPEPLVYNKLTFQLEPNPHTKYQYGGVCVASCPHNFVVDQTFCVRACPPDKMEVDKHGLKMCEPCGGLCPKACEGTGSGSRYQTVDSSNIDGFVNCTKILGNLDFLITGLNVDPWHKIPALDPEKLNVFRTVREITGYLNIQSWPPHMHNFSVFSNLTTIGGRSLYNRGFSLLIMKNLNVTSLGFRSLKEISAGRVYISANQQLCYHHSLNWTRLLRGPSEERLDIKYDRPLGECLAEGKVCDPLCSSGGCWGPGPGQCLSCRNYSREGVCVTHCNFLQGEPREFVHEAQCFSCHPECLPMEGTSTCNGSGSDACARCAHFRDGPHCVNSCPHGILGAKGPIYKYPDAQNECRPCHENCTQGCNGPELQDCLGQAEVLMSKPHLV

B1: anti-HER3 mAb/NRG-1 fusion protein (recombinant fusion protein with Fc mutations) (other)
heavy: QVQLQQWGAGLLKPSETLSLTCAVYGGSFSGYYWSWIRQPPGKGLEWIGEINHSGSTNYNPSLKSRVTISVETSKNQFSLKLSSVTAADTAVYYCARDKWTWYFDLWGRGTLVTVSSASTKGPSVFPLAPSSKSTSGGTAALGCLVKDYFPEPVTVSWNSGALTSGVHTFPAVLQSSGLYSLSSVVTVPSSSLGTQTYICNVNHKPSNTKVDKRVEPKSCDKTHTCPPCPAPEFLGGPAVFLFPPKPKDTLMISRTPEVTCVVVDVSHEDPEVKFNWYVDGVEVHNAKTKPREEQYNSTYRVVSVLTVLHQDWLNGKEYKCKVSNKALPAPIEKTISKAKGQPREPQVYTLPPSREEMTKNQVSLTCLVKGFYPSDIAVEWESNGQPENNYKTTPPVLDSDGSFFLYSKLTVDKSRWQQGNVFSCSVMHEALHAHYTQKSLSLSPGKGGGGSGGGGSSHLVKCAEKEKTFCVNGGECFMVKDLSNPSRYLCKCPNEFTGDRCQNYVMASFYKAEELYQ
light: [left out - about 200 residues]
notes: It carries the Fc mutations L234F, S239A and N434A; Made in CHO-derived HD-BIOP3 cells; also called the recombinant fusion protein disclosed herein; NRG-1/HER3 antibody fusion protein
Mouse HER3 antigen
  koff: 0.00251 s⁻¹
  kon: 906000 M⁻¹ s⁻¹
Human HER3 antigen
  koff: 0.000228 s⁻¹
  kon: 727000 M⁻¹ s⁻¹
Rat HER3 antigen
  koff: 0.003 s⁻¹
  kon: 1.12e+06 M⁻¹ s⁻¹
Monkey HER3 antigen
  koff: 0.000264 s⁻¹
  kon: 666000 M⁻¹ s⁻¹
